In publication PMC4336329 (PLoS ONE, 2015):
Out of some 310,000 compounds screened, about 2,200 (0.71%) showed an effect of 50% or more. Effects have a minus sign here. The list shows a part of the results.

Each compound was assayed against human ether-à-go-go-related gene (hERG) potassium channel (human, UniProt Q12809) (assay: primary screen, population patch clamp on CHO cells stably expressing hERG).
Chain of human ether-à-go-go-related gene (hERG) potassium channel (Q12809 whole entry, looked up): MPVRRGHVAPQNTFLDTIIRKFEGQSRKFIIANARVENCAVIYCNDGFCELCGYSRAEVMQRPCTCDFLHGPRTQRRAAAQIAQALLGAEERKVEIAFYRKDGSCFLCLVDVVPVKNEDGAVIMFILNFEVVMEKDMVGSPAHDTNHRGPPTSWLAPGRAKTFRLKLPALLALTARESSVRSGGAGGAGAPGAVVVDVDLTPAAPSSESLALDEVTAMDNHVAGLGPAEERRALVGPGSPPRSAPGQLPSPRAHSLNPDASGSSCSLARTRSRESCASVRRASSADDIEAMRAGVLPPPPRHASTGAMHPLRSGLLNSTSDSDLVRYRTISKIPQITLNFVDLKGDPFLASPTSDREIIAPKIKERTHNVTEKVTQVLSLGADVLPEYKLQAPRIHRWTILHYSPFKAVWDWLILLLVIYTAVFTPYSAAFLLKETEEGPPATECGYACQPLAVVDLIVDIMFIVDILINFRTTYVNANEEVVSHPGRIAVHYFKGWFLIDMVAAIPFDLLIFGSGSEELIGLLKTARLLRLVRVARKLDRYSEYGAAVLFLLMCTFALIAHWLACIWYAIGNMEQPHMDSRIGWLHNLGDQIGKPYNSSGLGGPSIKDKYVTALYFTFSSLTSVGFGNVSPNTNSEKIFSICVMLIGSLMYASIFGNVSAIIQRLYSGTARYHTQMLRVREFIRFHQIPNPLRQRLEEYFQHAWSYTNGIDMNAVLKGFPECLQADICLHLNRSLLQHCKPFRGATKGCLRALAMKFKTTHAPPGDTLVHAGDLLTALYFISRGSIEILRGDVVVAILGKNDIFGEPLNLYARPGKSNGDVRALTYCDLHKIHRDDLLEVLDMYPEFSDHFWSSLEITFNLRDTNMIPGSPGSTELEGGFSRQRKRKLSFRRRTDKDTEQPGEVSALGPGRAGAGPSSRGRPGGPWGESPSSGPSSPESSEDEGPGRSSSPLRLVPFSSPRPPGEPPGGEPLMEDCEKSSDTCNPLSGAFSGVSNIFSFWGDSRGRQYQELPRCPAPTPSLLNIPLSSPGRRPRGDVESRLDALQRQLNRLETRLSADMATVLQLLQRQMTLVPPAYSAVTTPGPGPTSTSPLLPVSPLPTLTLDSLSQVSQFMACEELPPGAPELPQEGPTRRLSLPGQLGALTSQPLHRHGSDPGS

| Compound | hERG current change (%, negative = inhibition) at 1uM |
| --- | --- |
| Cc1ccccc1NC(=O)CSc1nnc(-c2ccccn2)o1 | 10.6% |
| CCC(C)NC(=O)CC1Oc2ccc(Cl)cc2NC1=O (stereo not shown) | 12.6% |
| NC(=O)c1oc2ccccc2c1NC(=O)Cc1ccccc1 | 17.4% |
| Cn1ncc2c(NNC(=O)c3ccc(Cl)c(Cl)c3)ncnc21 | 0.227% |
| Cc1cccc(-c2nnc(SCC3CNC(=O)O3)n2-c2ccc(Cl)cc2)c1 (stereo not shown) | -1.51% |
| O=C(NCc1ccccc1)C1CCC(CNS(=O)(=O)c2cccs2)CC1 (stereo not shown) | 13.7% |
| Cc1cc(C)c(S(=O)(=O)N2CCN(C(=O)c3ccc(-n4cncn4)c([N+](=O)[O-])c3)CC2)c(C)c1 | -14.4% |
| CC(C)CN(C(=O)COC(=O)CNC(=O)c1ccc(Cl)cc1)C1CCS(=O)(=O)C1 (stereo not shown) | 9.16% |
| COc1ccc(NC(=O)NC23CC4(C)CC(C)(CC(C)(C4)C2)C3)cc1OC | 16.6% |
| Cc1c(CC(=O)O)c(=O)oc2cc(OCc3nn[nH]n3)ccc12 | 4.82% |
| CSc1nnc2ccc(-c3cccs3)nn12 | 6.02% |
| C[C@H](NC(=O)c1ccccc1)C(=O)OCC(=O)Nc1ccc2c(c1)OCO2 | 3.98% |
| Cn1c(SCCOc2ccc(Cl)cc2)nnc1-c1ccncc1 | -17.6% |
| COc1ccccc1Cn1c(=O)oc2ccc(C)cc21 | 11.7% |
| COc1ccc(C2C(C(=O)c3ccco3)=C(O)C(=O)N2CC2CCCO2)cc1 (stereo not shown) | 6.45% |
| C=CCc1cccc2cc(C(=O)N3CCN(C(=O)c4ccco4)CC3)c(=O)oc12 | 2.68% |
| O=C1CSC(c2cccnc2)N1Cc1ccc(Cl)c(Cl)c1 (stereo not shown) | 4.43% |
| O=C(/C=C/c1ccccc1[N+](=O)[O-])NCC1CCCO1 (stereo not shown) | 8.39% |
| CCCOc1ccc(-c2nnn(CC(=O)N3CCCC(C)C3)n2)cc1 (stereo not shown) | 10.7% |
| CCOC(=O)c1cc2c(=O)n3ccccc3nc2n(Cc2ccccc2)c1=N | -68.9% |

| Compound | hERG current change (%, negative = inhibition) at 1uM |
| --- | --- |
| CCOc1ccc(-c2nn[nH]n2)cc1OCC | 8.59% |
| Cc1cc2ccccn2c1C(=O)c1ccc([N+](=O)[O-])o1 | 6.81% |
| CCNc1nc2c(c(=O)[nH]c(=O)n2C)n1CC(C)C | 3.11% |
| Cc1ccc(C(=O)O/N=C(\N)c2ccccn2)c(Cl)c1 | 13% |
| O=C(OCC(=O)C12CC3CC(CC(C3)C1)C2)c1cnccn1 | 8.15% |
| CCc1ccccc1N(CC(=O)N1CCc2ccccc2C1)S(C)(=O)=O | 11.9% |
| CCCCCn1c(=O)[nH]c2cc(C(=O)NCCc3ccc(OC)c(OC)c3)ccc2c1=O | 11.4% |
| C=CCOC(=O)C1=C(C)NC(SC)=C(C#N)C1c1cccs1 (stereo not shown) | 2.07% |
| CCOC(=O)c1ccc(NC(=O)c2n[nH]c(=O)c3ccccc23)cc1 | 1.36% |
| CN(C)c1cccc(O)c1 | 15.7% |
| O=C(CSc1nnc(CNC(=O)c2ccco2)o1)Nc1ccc(F)cc1F | 7.44% |
| CCc1ccccc1NC(=O)CSc1nc(C)c(C)o1 | 6.69% |
| CCN(CC)CCOc1ccc2c(c1)C(=NNC(=O)c1ccccn1)c1cc(OCCN(CC)CC)ccc1-2 | 3.08% |
| COc1ccc(C(=O)NCCCCCC(=O)O)cc1OC | -5.04% |
| CC(C)c1ccc(N=c2c([N+](=O)[O-])nn(-c3ccc4c(c3)OCCO4)n2O)cc1 | 12.9% |
| CCCCOC(=O)Nc1ccc(S(=O)(=O)Nc2nccs2)cc1 | 9.25% |
| COc1cc(OC)cc(C(=O)NCC(=O)OCc2cc(=O)oc3cc(OC)ccc23)c1 | 19.8% |
| CCN(CC)CCCNC(=O)c1cn(C)c2ccc(S(=O)(=O)N(C)C)cc2c1=O | 8.41% |
| C/C(Cc1ccccc1)=N\NC(=O)CNC(=O)c1cccc(Cl)c1 | 16.1% |
| COc1ccc(Cc2nnc(NC(=O)Nc3ccccc3OC)s2)cc1 | 14.7% |

| Compound | hERG current change (%, negative = inhibition) at 1uM |
| --- | --- |
| Cc1nn(CC(=O)Nc2ccc3c(c2)OCO3)c(C)c1Cl | 13.5% |
| CCC(C)NC(=O)CNC(=O)c1nn(-c2ccc(OC)c(Cl)c2)c(=O)c2ccccc12 (stereo not shown) | 6.84% |
| O=C(Nc1nnc(-c2ccc(Cl)cc2)o1)C1=COCCO1 | 12.8% |
| CS(=O)(=O)N1CCC(NC(=O)Nc2ccc(OC(F)(F)F)cc2)CC1 | 8.36% |
| CC1=CC(=C2C(=O)NC(=S)NC2=O)C=C(C(F)(F)F)N1CCc1ccccc1 | 12.9% |
| O=C(NCCS(=O)(=O)N1CCN(c2ccccc2)CC1)c1ccccc1F | 13.4% |
| COC(C(=O)Nc1cccc(F)c1)c1ccccc1 (stereo not shown) | 17.2% |
| CC(C(=O)NC1C=CS(=O)(=O)C1)N1C(=O)/C(=C\c2ccccc2)SC1=S (stereo not shown) | 14% |
| O=C(NCCc1csc(-c2ccccc2)n1)c1ccc(Br)o1 | 14.3% |
| C=C(C)C1CC=C(C)/C(=N/NC(=O)COc2ccccc2Cl)C1 (stereo not shown) | 8.98% |
| Cc1csc(NC(=O)c2cc(=O)[nH]c3ccccc23)n1 | 12.5% |
| CCCn1c(N)c(C(=O)CN2CCc3ccccc3C2)c(=O)n(C)c1=O | 7.38% |
| COc1ccc(/C=N/NC(=O)c2nc(Cl)c(Cl)c(N)c2Cl)cc1COc1ccccc1F | 4.2% |
| CCOC(=O)C1=C(O)CSC1=Nc1ccccc1 | 7.62% |
| COc1ccc(C2CC(=O)N(c3ccccc3)C3=C2C(=O)CCC3)cc1 (stereo not shown) | 14.2% |
| Cc1nc2ccc(NC(=S)N3CCC(C)CC3)cc2nc1C | -13.3% |
| O=C(CCC(=O)N(CC(=O)NC1CCCCC1)CC1CCCO1)Nc1nccs1 (stereo not shown) | 9.83% |
| O=C(c1cnn(-c2cccc(F)c2)c1)c1ccccc1O | 5.17% |
